Source: PubChem BioAssay AID248 (DTP/NCI, 2004)
Toxic doses and inconclusive results are not listed. Some entries of the source have several records that differ or are many. They are shown here; other results are not. The source may hold further records. Values that stand side by side are repeated measurements (runs, samples, wells, individuals or studies).

Tested on: L1210 leukemia ip in BDF1 mice, survival T/C
Test: NCI In Vivo Anticancer Drug Screen. Data for tumor model L1210 Leukemia (intraperitoneal) in B6D2F1 (BDF1) mice
Conditions: endpoint: mean survival time, higher = longer survival

With OC(CN(CCCl)CCCl)C(O)C(O)C(O)CN(CCCl)CCCl (centres undefined) as the compound, how does the T/C (dose: 0.5 mg/kg/injection, schedule: Q01DX Z (ip), vehicle: saline) read?
The T/C was 118 % of control and 158 % of control.

And the T/C (dose: 4.5 mg/kg/injection, schedule: Q01DX Z (ip), vehicle: saline)?
The T/C was 119 % of control and 153 % of control.

Which T/C (dose: 200.0 mg/kg/injection, schedule: Q04DX003 (ip), vehicle: water) does the source give for Nc1nc(N)c2c(Cl)c(CNc3ccc(Cl)c(Cl)c3)ccc2n1 here?
Its T/C is 92 % of control and 152 % of control.

For CCCNC(=O)c1ccc(NC(=O)Nc2ccc(C3=NCCN3)cc2)cc1NC(=O)Nc1ccc(C2=NCCN2)cc1, which T/C (dose: 200.0 mg/kg/injection, schedule: Q01DX Z (ip), vehicle: carboxymethylcellulose (CMC)) is on record?
The T/C was 111 % of control and 177 % of control.

What does the source list for O=C(Nc1ccc(NC(=O)Nc2ccc(C3=NCCN3)cc2)cc1)Nc1ccc(C2=NCCN2)cc1?
T/C (dose: 165.0 mg/kg/injection, schedule: Q01DX Z (ip), vehicle: carboxymethylcellulose (CMC)): 106 % of control and 196 % of control; T/C (dose: 250.0 mg/kg/injection, schedule: Q01DX Z (ip), vehicle: carboxymethylcellulose (CMC)): 96 % of control and 161 % of control

Which results are given for O=NN(CCCl)C(=O)NC1CCCCC1?
T/C (dose: 1.0 mg/kg/injection, schedule: Q01DX Z (ip), vehicle: carboxymethylcellulose (CMC)): 114 % of control and 155 % of control; T/C (dose: 31.0 mg/kg/injection, schedule: Q01DX Z (ip), vehicle: carboxymethylcellulose (CMC)): 124 % of control and 158 % of control

How did the T/C (dose: 100.0 mg/kg/injection, schedule: Q01DX009 (ip), vehicle: saline with Tween-80) turn out when NC(=O)c1n[nH]nc1N1CC[N+](CCCl)=N1 was run?
The T/C was 105 % of control and 150 % of control.

Which T/C (dose: 200.0 mg/kg/injection, schedule: Q04DX002 (ip), vehicle: other) does the source give for CC1(C)CN(Cc2ccc(Cl)cc2)C1=O here?
The T/C was 110 % of control and 161 % of control.

CCC1CN1CC1CO1 (centres undefined) was tested. Which T/C (dose: 22.0 mg/kg/injection, schedule: Q01DX Z (ip), vehicle: saline) did it give?
Its T/C is 118 % of control and 159 % of control.

CCOC(=O)C(NC(=O)C(Cc1ccc(N(CCCl)CCCl)cc1)NC(C)=O)C(C)C (centres undefined) was tested. Which T/C (dose: 30.0 mg/kg/injection, schedule: Q01DX009 (ip), vehicle: alcohol) did it give?
The T/C was 110 % of control and 155 % of control.

What about the T/C (dose: 50.0 mg/kg/injection, schedule: Q01DX009 (ip), vehicle: alcohol) of the same compound?
The T/C was 108 % of control and 156 % of control.

And the T/C (dose: 75.0 mg/kg/injection, schedule: Q01DX009 (ip), vehicle: alcohol)?
The T/C was 122 % of control and 182 % of control.
